# Data reported in PubChem BioAssay AID488969 (Vanderbilt High Throughput Screening Facility, 2010).
# Whole data set: some 110,000 compounds, median “z-score” near -0.1, cut for the highest 2% near 2. The list shows a part of the results. The source made the active and inactive calls.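 How the source made its calls: active means z-score in the third read window above 3 or below -3; inactive means the rest.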
# Target: Metabotropic glutamate receptor 8 (Rattus norvegicus) (UniProt P70579)
# Assay: mGluR8 Gi/Go-coupled signaling modulation – cell-based, rat, thallium flux, HTS, primary screen (AID 488969)
# Conditions: HEK293 rat mGluR8, GIRK (G protein-gated inwardly rectifying potassium channel) thallium flux, FluoZin2; at 10 µM; stronger effect = higher value; submaximal glutamate (EC20) added with thallium
# Chain of UniProt P70579 (P70579 whole entry, looked up): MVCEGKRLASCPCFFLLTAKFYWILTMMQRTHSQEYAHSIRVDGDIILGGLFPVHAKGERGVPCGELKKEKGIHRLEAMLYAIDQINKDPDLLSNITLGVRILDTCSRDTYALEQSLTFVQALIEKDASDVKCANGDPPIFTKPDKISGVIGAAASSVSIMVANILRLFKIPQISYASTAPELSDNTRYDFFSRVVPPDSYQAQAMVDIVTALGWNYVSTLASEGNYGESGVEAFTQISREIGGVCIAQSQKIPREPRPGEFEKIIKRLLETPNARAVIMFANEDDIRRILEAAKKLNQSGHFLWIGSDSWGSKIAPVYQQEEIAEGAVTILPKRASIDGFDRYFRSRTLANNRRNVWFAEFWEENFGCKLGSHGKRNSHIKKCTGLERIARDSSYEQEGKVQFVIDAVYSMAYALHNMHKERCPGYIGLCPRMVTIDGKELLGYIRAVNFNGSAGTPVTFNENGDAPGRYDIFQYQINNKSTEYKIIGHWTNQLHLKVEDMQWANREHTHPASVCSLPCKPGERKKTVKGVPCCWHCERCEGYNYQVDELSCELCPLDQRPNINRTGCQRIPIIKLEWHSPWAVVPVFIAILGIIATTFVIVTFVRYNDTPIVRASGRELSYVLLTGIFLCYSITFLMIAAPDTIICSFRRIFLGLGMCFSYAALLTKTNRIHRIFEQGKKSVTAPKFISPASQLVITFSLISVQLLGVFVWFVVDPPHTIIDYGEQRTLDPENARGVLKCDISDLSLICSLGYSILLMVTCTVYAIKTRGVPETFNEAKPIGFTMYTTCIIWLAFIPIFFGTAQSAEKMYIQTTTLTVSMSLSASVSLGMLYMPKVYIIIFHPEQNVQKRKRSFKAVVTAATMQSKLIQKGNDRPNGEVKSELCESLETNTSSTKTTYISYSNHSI
row,SMILES,z-score
1,CC(C)CC1C(C#N)=C(N)Oc2n[nH]c(-c3cccs3)c21 (stereo unspecified),-2.24
2,CCc1nnc(NC(=O)CSc2ncc(-c3ccccc3)[nH]2)s1,0.0205
3,COc1ccc(C(=O)/C=C/c2cn(CC(O)CN3CCOCC3)c3ccccc23)cc1 (stereo unspecified),-0.177
4,O=C(Cn1cc(/C=N/O)c2ccccc21)N1CCOCC1,-0.312
5,N#C/C(=C\c1c(N2CCCCC2)nc2ccccn2c1=O)C(=O)NCc1ccco1,-0.855
6,COc1ccc2o/c(=N\O)c(C(=O)Nc3ccccc3OC)cc2c1,-0.0136
7,N#Cc1c(N2CCCCC2)nc(N2CCCCC2)c2c1CCN(Cc1ccccc1)C2,0.139
8,O=C(Oc1ccccc1Cl)c1ccc(-n2cncn2)nc1,-0.0109
9,Cc1ccc(C(=O)NC(N2CCCC2)C(Cl)(Cl)Cl)cc1 (stereo unspecified),-0.364
10,COc1ccc2c(c1)C(NC(=O)C(F)(F)F)CC2=O (stereo unspecified),0.142
11,CCOC(=O)CCCOC(=O)c1ccc(S(=O)(=O)N(C)C)cc1,0.718
12,O=C(CSc1nnc(-c2cccnc2)n1-c1ccccc1)Nc1ccccc1,-0.368
13,CC(C)Sc1nc2c(c(=O)[nH]1)C(c1cccs1)C1=C(CC(C)(C)CC1=O)N2 (stereo unspecified),active: -3.58
14,CC(C)=CCCC1=CCC(/C=N/NC(N)=O)C(C)C1 (stereo unspecified),-0.318
15,COc1ccc(Br)cc1S(=O)(=O)NCc1ccccc1,-0.34
16,CCOC(=O)C1=C(C)NC(C)=C(C(=O)OCC)C1c1cn(-c2ccccc2)nc1-c1ccco1,0.105
17,CCOC(=O)N1CCN(c2ccc(C(=O)CC)cc2F)CC1,-0.508
18,Cc1cccc(C)c1NC(=O)c1ccc(CN2CCc3ccccc3C2)cc1,-0.199
19,O=C(CSc1nc2ccccc2c(=O)n1-c1ccc(F)cc1)Nc1cc(S(=O)(=O)N2CCOCC2)ccc1Cl,-0.134
20,CCOC(=O)c1ccc(NC(=O)Cn2nnc3ccccc32)cc1,0.966
21,COc1ccc(Cl)cc1C(=O)NCc1cn(C)nc1C,-0.575
22,CC(C)CC(=O)Nc1ccccc1-c1nnn(CC(=O)N2CCc3ccccc3C2)n1,active: -3.36
23,Cc1ccccc1OCC(=O)OC(C(=O)c1ccccc1)c1ccccc1 (stereo unspecified),0.144
24,CC1(C)CC(=NOC(=O)c2ccccc2)CC(C)(C)N1O,-0.193

row,SMILES,z-score
1,O=P(c1ccc2c(c1)OCCO2)(N1CCOCC1)N1CCOCC1,0.00292
2,COc1cccc(/C=N/NC(=O)CN(C2=NS(=O)(=O)c3ccccc32)c2ccccc2)c1,-0.0121
3,CCCN(CCC)S(=O)(=O)c1ccc(C(=O)Nc2nnc(CSC)o2)cc1,0.35
4,CS(=O)(=O)N(CC(=O)NCCc1ccccc1)C1CCCCC1,-0.172
5,O=S(=O)(NCCCc1ccccc1)c1ccccc1,-0.201
6,COc1ccc2[nH]c3c(=O)n(Cc4ccco4)cnc3c2c1,-0.0334
7,CCOc1ccc(Oc2cc(NC(=O)c3ccco3)cc([N+](=O)[O-])c2)cc1,-0.289
8,Fc1ccc(OCCCCCN2CCCC2)cc1,-0.494
9,CCOC(=O)C1(S(=O)(=O)c2ccccc2)CCN(Cc2ccccc2)CC1,-0.78
10,COc1ccc(NC(=S)Nc2ccc(F)cc2)c(OC)c1,-0.0593
11,CC1CCN(c2nc(-c3ccccc3O)nc3ccccc23)CC1,-0.417
12,Cc1ccc(/C=N/NC(=O)c2cc(C)oc2C)o1,-0.624
13,O=C(Cc1cnn(-c2ccccc2)c1)c1ccc(O)c(O)c1O,0.0853
14,COC(=O)c1[nH]c2cccc(OC)c2c1NC(=O)CN(C)CC1OCCO1,0.102
15,CN(C)S(=O)(=O)c1cc(NC(=O)COC(=O)Cc2cccc3ccccc23)ccc1Cl,0.00257
16,Cc1nnc(NC(=O)CC(NC(=O)C(F)(F)F)c2ccccc2)s1 (stereo unspecified),-0.436
17,CCC(/C=N/NC(=O)C1COc2ccccc2O1)CC (stereo unspecified),1.68
18,Cc1cc(F)ccc1NCC(=O)Nc1ccccc1Br,1.92
19,Cc1ccc(C(=O)NC2c3ccccc3-c3ccccc32)cc1,-0.548
20,O=C(NCCc1ccccc1)c1ccncc1,0.547
21,O=C(CSc1nc2ccccc2n1CC(=O)N1CCCC1)Nc1nccs1,0.452
22,COc1ccc(S(=O)(=O)N2CCC(C(=O)NCCc3ccccc3)CC2)cc1OC,-0.189
23,CCN(CC)S(=O)(=O)c1ccc(C(=O)OCCNC(=O)c2cccnc2)cc1,-0.485
24,C/C(=N\NC(=O)c1ccc(C)cc1)C1C(=O)c2ccccc2C1=O,1.69

row,SMILES,z-score
1,Cc1nc2c3ccccc3n(CC#N)c(=O)n2n1,-0.0267
2,COc1ccc(S(=O)(=O)N(C(C)=O)c2ccc3oc(=O)sc3c2)cc1,-0.103
3,CCC(CC)NC(=O)Cc1ccc(S(=O)(=O)N2CCOCC2)s1,-0.187
4,O=C(CN1C2CCC1CC(NC(=O)Nc1ccccc1)C2)NCc1ccco1 (stereo unspecified),0.243
5,CCCN1Cc2cccc(C(=O)N3CCN(c4cc(Cl)ccc4C)CC3)c2C1=O,1.1
6,O=C1/C(=C/c2ccccc2)CCCc2ccccc21,-0.145
7,Fc1cccc(NC(=S)N2CCCCC2)c1,0.0996
8,O=C(c1ccccc1Cl)N(C(=O)c1ccccc1Cl)c1nccc(-c2cccs2)n1,-0.121
9,Cc1cc(C)cc(OCCCC(=O)O)c1,-0.302
10,O=C(COc1ccc2ccccc2c1)NCCn1ccc2ccccc21,-0.31
11,Cc1nc(NC(=O)C2CC2)sc1C(=O)N(C)C,-0.405
12,CCOc1cc(C2NC(=O)NC(O)(C(F)(F)F)C2C(=O)c2ccc(Cl)cc2)ccc1O (stereo unspecified),0.149
13,Fc1ccc2nc(Nc3nc4cc5c(cc4s3)OCCO5)sc2c1,-0.101
14,COc1ccc(CCNC(=O)C(C(=O)c2ccccc2)n2cc(Cl)ccc2=O)cc1OC (stereo unspecified),0.409
15,COCCCN1C(=O)C(=O)/C(=C(/O)c2ccc(OCC(C)C)cc2C)C1c1cccnc1 (stereo unspecified),-0.0415
16,COc1ccc(NC(=O)C2CCC(CNc3c(N4CCCCC4)c(=O)c3=O)CC2)cc1OC (stereo unspecified),-0.375
17,CCn1nccc1C(=O)Nc1nccs1,0.146
18,O=C1Nc2ccccc2CCC1Sc1nnc(-c2ccc(Cl)cc2)s1 (stereo unspecified),-0.107
19,COc1cc(/C=C/C(=O)OCC(=O)NCc2ccco2)cc(OC)c1OC,-0.291
20,COc1ccc(S(=O)(=O)N2CCCCCC2)cc1C(=O)OCC(=O)NCC(C)C,-0.098
21,CCOC(=O)N1CCN(C(=O)C(NS(=O)(=O)c2cccc3nsnc23)c2ccccc2)CC1 (stereo unspecified),0.727
22,Cn1c(SCC(=O)N2CCN(c3cccc(Cl)c3)CC2)nnc1-c1ccncc1,-0.394
23,CN(C(=O)C12CC3CC(CC(C3)C1)C2)C1CCS(=O)(=O)C1 (stereo unspecified),-0.0122
